Measurements reported in the supplement of paper PMC12632987.
The full ranking holds about 4,500 sequences; the median of “median log2 fold change of GCK-ALFA target abundance (FLAG IP / Myc IP barcode read proportion)” is about 0.078, and the lowest 2% start at about -0.6. Some of the results follow.

B1: GBRAP_160_4184 (protein)
chain: EEEIEELIKEIKEIAEEAKKLIEGETHEQRKVIVAGAFGQIILLLSENEKISDETVDEVAKIADETIETLEKNPDLTEEEIKELIKEATEKIIEIIKKNT
B2: GBRAP_74_6515 (protein)
chain: QAALLAALRAAAEAGDARAVAALAREIIATGSLEAIEEAARIVVAFVDRHIDELSEEELELMADVLAELADKLMELGGDSEVILAVANAAYRLEKLIEER
B3: GBRAP_11_2609 (protein)
chain: KKEILKRLAELAKEAAEAVEELLEVGVDDEELLKKIKELIEKLKEEVEKHGNEADKTDIEVIVELWKLAQEDPENQEFYLEQLLAALRVFAGNYLLEIEE
B4: GBRAP_128_3577 (protein)
chain: SAAERLARARELIAAIVASDVAEARRLAEELVALLAEADEATREEIAELVLAALPQLTAEKLDVLADVARAARPRADPLTAEALADIEVEALNEREELEE
B5: GBRAP_128_3189 (protein)
chain: SVEEVRAWTTAAMEAIKNSDAETARAIAEALFDRLKTLSVEEVEAAVAVILEQLPQLTAEQLEILADVARERRPEFDPEKANLVAEVEVEALNLLEELEE
B6: GBRAP_184_5352 (protein)
chain: MVRDVVIKADTVDEAIAKLNEAVAAAKAAGEGLNLLIEVPINTVEDAKKLMAALKAGADAGVIKGVVGITNVSNDDEIIDTLVKGADEAGIKLVLALDEE
B7: GBRAP_52_6227 (protein)
chain: MRERMRALVERGVALVRAGRLEEARALAREVVETLNDEELELFIEELAEAVRAAPLEDLPAYERLVELVEEAMEEAGKDEVLIDLLESRFAAAAYERLQK
B8: GBRAP_35_5562 (protein)
chain: DSDETIAEMMVNTIDDLTEAVADIPPEQLATITAQLARATKEVIKEIKDNKENLEKLLESLEKLKAAIEARGLDDPHLRAAAEAVEEAIKEAKEAIKKAE
B9: GBRAP_160_4863 (protein)
chain: SEKLERALKIIEEAEKEALEIIEEAPASDRAAFAESEMGEAIMELVEEGLITDELEDKLMEIADKLRERLLANADASVEEHKKLVEEAFKEMKETVKKMS
B10: GBRAP_52_5942 (protein)
chain: MEEKYKAIAEKLLALGLAGDEEGLEALAREIAETLSDEEILAVAKEIAELAKTLPKEDLDAVYRIMEVLVEELEKAGRSEELIAEIEGIMAKAMYERELA
B11: GBRAP_95_7079 (protein)
chain: DEDLEEVEILAYTAIDLYDAGLKEHAAKLFKAALDEAEELGWKVKDKELFHELLKKFAELALEHFTAEEIKRAIEAAKKSGAPKELIEALEKKLKEKEAA
B12: GBRAP_45_5807 (protein)
chain: SAELQAALDAALAALDRAIAEARRLAKEDPERWAVVLARLEALRARLVANADNAEALKAIAAELDALLKEAAADPGATAELLDALLEAANAVAEAAELLK
B13: GBRAP_160_4232 (protein)
chain: SEVVKKLVEVFREEFLEALELIKGESEEERKVILDVTVGRVILEASEIEGTTDEMEEVVDEKSEELAEKLLEAKDESEEEKKKLIEEMAKELEKELKKLA
B14: GBRAP_160_4192 (protein)
chain: SEEVEKLIKEIDEIAEEAKKMIEGETHEQRKVIIEMAFGEIIMLAFESPVVSDETVDEIVKIADEVIATIDENPDLTEEEIKKLLDEAVEKIKEIIKKDA
B15: GBRAP_78_6675 (protein)
chain: KVEEELDKALEHLDKAAKILNKMNTEEALEILGKVIDVRETVWEAHEGEADLKELEEALKELKEALKEVKKIDKEEAKEAAKELEKAIEHLEKAIKLLKE
B16: GBRAP_52_5970 (protein)
chain: MRERARREAEELLELKRRGDEEGLREKAREIARTFDDEEIRLLAEALAEIVEEGDLEEAEIALEVAIVLADVLEEEGRDPRLASDLLGLVARAAYKLELK
B17: GBRAP_186_5378 (protein)
chain: EEELEEIRDEIIDELEAEGYTVIVVDDVYEFTEENKESIKRDVEAVTELAKETGKKYALVIPFKGTEEELEEAKKFIEELDKEAKAEGGTVVKLAGLVTP
B18: GBRAP_128_3464 (protein)
chain: SVEEAVKRTKELLEEVKKADLETARKLFEELAAELTTLSLEEVEAVVEVIEERLPELSAEKLEILAEVFRAALPKFDPEKRALIAEVISEALLEAEEKEE
B19: GBRAP_26_5449 (protein)
chain: MEELLEEFREKLKKLADELLDPETAALLKVEVDNIVALAEMELEEANGDLEKMLAVVDQMLKDLEQALDDLGVPEDVKKKLLEAAKEAAEKIKEALKKES

Target: GABARAP, O95166
Assay: median log2 fold change of GCK-ALFA target abundance (FLAG IP / Myc IP barcode read proportion) (log2 ratio); each designed protein is fused to an ALFA-tag nanobody in HEK293 cells to bring the named protein to FLAG-tagged glucokinase (GCK); Myc marks an untargeted standard; higher = target protein stabilised (more abundant)
Conditions: target protein: 3xFLAG-MCP-GCK-ALFA reporter; HEK293 landing pad (RPLP)
In short: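 Binders fused to an ALFA nanobody were recombined as a library into HEK293 landing-pad cells, which were induced with 2 μg mL^−1 doxycycline and then transfected to express a FLAG-tagged target and a Myc-tagged standard. After 48 h, circular RNA barcodes recovered by anti-FLAG and anti-Myc immunoprecipitation of lysates were reverse transcribed, amplified and sequenced. Each binder's target abundance is the median log2 ratio of FLAG to Myc barcode read proportions, from barcodes present at ≥10^−7 in both replicates, binders carrying ≥3 barcodes per replicate, a 10^−6 pseudocount and pooled replicates.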

GABARAP, O95166, sequence (O95166 whole entry, the tested form may be a part): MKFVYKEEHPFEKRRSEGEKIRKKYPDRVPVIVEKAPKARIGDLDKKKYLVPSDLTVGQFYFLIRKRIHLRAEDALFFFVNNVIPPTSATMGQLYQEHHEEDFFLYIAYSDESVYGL

| Binder | median log2 fold change |
| --- | --- |
| B1 | 0.121 |
| B2 | -0.0912 |
| B3 | -0.173 |
| B4 | 0.157 |
| B5 | 0.108 |
| B6 | 0.12 |
| B7 | 0.0801 |
| B8 | 0.0426 |
| B9 | 0.246 |
| B10 | 0.108 |
| B11 | 0.0852 |
| B12 | 0.146 |
| B13 | -0.216 |
| B14 | -0.154 |
| B15 | 0.337 |
| B16 | -0.387 |
| B17 | 0.149 |
| B18 | 0.24 |
| B19 | 0.226 |
